In patent publication US20180066029A1 (UNIVERSIT T STUTTGART, published 2018):

Target: recombinant histone H4 (no post-translational modifications) (UniProt P62805)
Assay: far-western blot

binding result	Binder
no binding	artificial protein MLM (chromodomain of MPP8, artificial linker of 27 amino acids, chromodomain of MPP8, N-terminal GST tag) (designed binder, N-terminal GST tag) [sequence of about 200 residues omitted]SDLEVLFQGPLGSVFEVEKILDMKTEGGKVLYKVRWKGYTSDDDTWEPEIHLEDCKEVLLEFRKKIAESSGNSNANSRGPSFSSGLVPLSLRGSHVFEVEKILDMKTEGGKVLYKVRWKGYTSDDDTWEPEIHLEDCKEVLLEFRKKIAELERPHRD
no binding	artificial protein C7LT (chromodomain of CBX7, artificial linker of 27 amino acids, PHD domain of TAF3, N-terminal GST tag) (designed binder, N-terminal GST tag) [sequence of about 200 residues omitted]SDLEVLFQGPLGSEQVFAVESIRKKRVRKGKVEYLVKWKGWPPKYSTWEPEEHILDPRLVMAYEEKEESSGNSNANSRGPSFSSGLVPLSLRGSHVIRDEWGNQIWICPGCNKPDDGSPMIGCDDCDDWYHWPCVGIMTAPPEEMQWFCPKCANKKKDKKHKKRKHRAH
